84 variants from the RNAGym collection of RNA variant scans (doi:10.7554/elife.90254) can be followed below.

The source gives no read counts; variants with many changes may rest on few reads.

B1: LINE1-full (parent)
chain: UACGUAGGUGGUUUUCCCCUGAUAGUGCUAAGGGGGCCUGGAAGUUUGGACUGGGCAGAGCUCAACACAGCGUGGCAAAGUGGCUGUGGCUAGACUGCCUCUCUGGAUUCCUCGUCACUCAGCAGGGCAUCUCUGAGAGAAAUGCC

Variants of B1 are the subject of this data set. Kind of data set: self-cleavage, relative activity (ratio to wild type); higher = more cleavage; in vitro, sequencing; the parent is a self-cleaving ribozyme.
In the case of U12G U13A U15C A50G, the self-cleavage was determined as 0.92.
Consider U13A A107G U132C, for which the self-cleavage is 1.53.
The value for U12G G55A U112C U143C was 0.35.
The value for U12G U14C U23A U39A A65G A69G A142G was 0; that for U12G G53A U102A G122A was 1.62.
Take U12C U112C U115C: the self-cleavage was determined as 2.3.
The value for U12G G32A A43G U100A was 1.09; that for U12C U15A C131U A136G was 0.77.
The value for U13C A22U U47G A77C A79G was 1.23; that for U12G U47C U143A was 1.02.
In the case of U12G U47A U73C U100C, the self-cleavage was found to be 2.9.
With U12C U39A U96C C146A the figure was 0.45; with U12G A57G C84G A124G A129U C133A, 0; with U12C U23C U119A U143A, 1.19.
As to U13A A42G A142G, the self-cleavage was found to be 1.06.
Turning to U13C A24G A77G U134A, the self-cleavage stood at 0.77.
U12C U39C U73C A92G C128G C131U: the self-cleavage was 0.
With U13C A24G C120A U134C U143C, the self-cleavage was 1.39.
The value for U12C U104C U143C was 1.62; that for U13A U81A U102A was 0.89.
With U12C U87A U112C A129U the figure was 0.04; with U12C U20C U46A A141G, 1.11.
U12G U100C U130A: the self-cleavage is 2.12.
With U12C U104A A141G the figure was 1.16.
With U13A U14G A24G A57U U62C A129U the figure was 0; with U13A U29A G75U, 0.7; with U13A U26A A69G U115C, 0.
With U12C U62A U73A U104A U108C U115G the figure was 0; with U12C U46C G49A G89A A138U, 0.06; with U12G G32C G60A, 0.16.
In the case of U13A U26C A43G A57U, the self-cleavage stood at 0.26.
As to U12G U45A A67G, the self-cleavage was found to be 0.45.
For U13A A92U A136U, the self-cleavage was found to be 0.36.
U12G C38A A42U: the self-cleavage turned out to be 0.53.
Turning to U13A A64U A124C, the self-cleavage stood at 0.42.
For the variant U12C U52G U96C, the self-cleavage came out at 1.93.
Turning to U13A U52A U85C, the self-cleavage was 0.18.
Consider U12G U73A A78G U109C, for which the self-cleavage is 1.77.
On to U12C U46C U87A C111U, for which the self-cleavage was found to be 0.17.
With U12G U29C A43G A57U the figure was 0.3; with U13C A22G A77G, 1.48; with U13A U45C U47C U85C G122U, 0.19.
The value for U12G U15A U81C G93A was 0.46; that for U12G A43G U100A A141G was 0.89; that for U12C U15C C66U U108C U134C was 0.26.
The value for U13A U20C U26C A57U G105U U119C was 0.11; that for U12C U81A U104C A142G was 2.12.
Turning to U12G U39C U115A, the self-cleavage stood at 0.78.
The value for U12G U39C U96C was 0.21; that for U13A U14A A43G A136U was 0.89; that for U12G U115C A142C was 0.98.
With U13A U39C A129G the figure was 1.11; with U12C U87C C120U, 0.5; with U12G A94G U104C A138G, 0.66.
With U12C U96A A117U A124U, the self-cleavage amounted to 0.12.
With U12G U39C A79G the figure was 0; with U12G A42G U46A U100C, 1.37.
The value for U12G C17A U143C was 0.58.
On to U13A U15C A69G U73C, for which the self-cleavage came to 1.19.
The value for U12C U14C A22G U91C was 0; that for U12G U45C A64G was 0.
The value for U12G U85C A117G was 0.26; that for U12C U13C U15C U46C U52A U96A was 0; that for U12G A69G A136G A142G was 1.05.
The value for U12G G53A A65G was 0.11; that for U12C U39C U134C was 1.1.
Turning to U13C A22U A124G, the self-cleavage was found to be 0.59.
Consider U12C U14C A65G, for which the self-cleavage was found to be 0.2.
In the case of U12G U20C A22U A107G U130C, the self-cleavage is 1.84.
U12C U13C A22G G97A A107G: the self-cleavage was determined as 0.22.
In the case of U13A U20A A124G, the self-cleavage was 0.64.
For U12G U96C C131U U143A, the self-cleavage was 0.25.
As for U13A U20C A57G, the self-cleavage was determined as 1.09.
With U12G A94G U132G, the self-cleavage came out at 0.33.
U12G A30G A65C U102A A140G: the self-cleavage was 0.61.
The value for U12G U13G U47C A59G was 2.3.
In the case of U12G C18A U29C, the self-cleavage is 0.95.
The value for U13C A22G U143C was 2; that for U12G C110A U132C was 0.96; that for U12G A64U A124G A142G was 0.41.
As for U12C U14C C99A A121G, the self-cleavage turned out to be 1.02.
U12C U46A A141G: the self-cleavage came to 0.46.
The value for U12C U108C C131A was 1.86.
In the case of U12C U47A G54A U81A, the self-cleavage is 0.56.
